Data: the supplement of paper PMC4723716
± gives the uncertainty stated by the source. Whole data set: some 9,900 compounds, median “viability index relative to DMSO control” near 1, cut for the lowest 2% near 0.85. The list shows a part of the results.

Tested on: Plasmodium falciparum NF54 stage V gametocytes
Test: viability index relative to DMSO control (fraction); higher = less gametocyte killing
Conditions: 2.5 µM, incubation time: 72 h
How it was run: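 Gametocytes (P. falciparum NF54, stage V) were treated with compound at 2.5 µM for 72 hr at 37°C in low oxygen, in serum-free medium at 0.75% gametocytemia and 1.25% hematocrit. Counts of 20–70 µm2 red particles, taken from one field per well after MitoTracker Red CMXRos with saponin, were divided by the plate mean of solvent-only wells. This ratio is the viability index.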

[1] = library set: Broad Institute DOS

SMILES	viability index [1]	viability index (library set: Broad Institute Blood Stage)
CCC(=O)N1[C@@H]2c3ccc(C4=CCCCC4)c(=O)n3C[C@@H]2[C@@H](CO)[C@@H]1C(=O)NCc1ccc(F)cc1	1.014 ± 0.0092	
COc1ccc2c3c([nH]c2c1)[C@@H](CO)N(C[C@]31CCN(Cc2cncnc2)CC1)C(=O)CN(C)C	1.06 ± 0.074	
COc1ccc(S(=O)(=O)Nc2ccc3c(c2)C(=O)N([C@@H](C)CO)C[C@H](C)[C@H](CN(C)C(=O)Nc2c(C)noc2C)OCCCC[C@@H](C)O3)cc1	1.09 ± 0.092	
CCCN1C[C@@H](C)[C@H](OC)CN(C)C(=O)c2cc(NS(=O)(=O)c3ccccc3)ccc2OC[C@H]1C	1.01 ± 0.025	
CCNC(=O)C[C@H]1CC[C@H]2[C@@H](COC[C@H](O)CN2C(=O)c2ccccn2)O1	1.07 ± 0.052	
CN(C)CC(=O)N1[C@@H]2c3ccc(-c4cccc(F)c4)c(=O)n3C[C@@H]2[C@@H](CO)[C@@H]1C(=O)NC1CCC1	1.02 ± 0.1	
CN1[C@@H]2Cn3c(ccc(-c4ccncc4)c3=O)[C@H]1[C@@H](C(=O)N1CCC(Cc3ccccc3)CC1)[C@@H]2CO	1.11 ± 0.041	
N#C[C@@H]1[C@H](c2ccc(-c3cccc(F)c3)cc2)[C@@H](CO)N1c1nc(-c2ccccc2)cs1	1.04 ± 0.045	
CC(C)NC(=O)Nc1ccc2c(c1)C(=O)N([C@@H](C)CO)C[C@@H](C)[C@H](CN(C)C(=O)C1CCCCC1)OCCCC[C@H](C)O2	1.07 ± 0.067	
C[C@@H]1CN([C@H](C)CO)C(=O)CCCn2nncc2CO[C@H]1CN(C)Cc1cccc(C(F)(F)F)c1	1.02 ± 0.022	
CO[C@@H](CN(C)C(=O)Nc1ccc(Cl)cc1)[C@@H](C)CN(Cc1ccccc1Cl)[C@H](C)CO	0.98 ± 0.099	
CN1C(=O)c2cc(NC(=O)c3cscn3)ccc2OC[C@H]2O[C@H](CC(=O)N3CCOCC3)CC[C@@H]21	1.08 ± 0.065	
O=C(Cc1ccccc1)N1CC(=O)N2[C@H](CO)[C@H](c3ccc(C#CCc4ccccc4)cc3)[C@H]2C1		0.699 ± 0.1
O=C(C[C@@H]1C=C[C@@H](NC(=O)C2CCC2)[C@@H](CO)O1)NC1CCCCC1	1.16 ± 0.096	
Cc1ccc(CN2CC(=O)N3[C@H](CO)[C@@H](c4ccc(-c5ccccc5F)cc4)[C@H]3C2)cc1	1.05 ± 0.062	
COc1ccc2c3c([nH]c2c1)[C@@H](CO)N(C)C[C@]31CN(C1)C(=O)C1CC1	1.05 ± 0.087	
CN1C[C@H]2[C@@H](c3ccccc31)[C@@H](CO)N2C(=O)c1cccnc1	0.995 ± 0.029	
CO[C@H](CN(C)S(=O)(=O)c1cccc(Cl)c1)[C@@H](C)CN(C(=O)Nc1ccccc1F)[C@H](C)CO	1.173 ± 0.0087	
N#C[C@@H]1[C@H](c2ccccc2)[C@H](CO)N1C(=O)c1ccccc1F	1.075 ± 0.0014	
Cc1ccc(S(=O)(=O)NCC[C@H]2CC[C@@H](NC(=O)c3cccnc3)[C@H](CO)O2)cc1	0.984 ± 0.057	
COc1ccc(NC(=O)N(C)C[C@H]2Oc3ccc(NC(=O)CCN4CCOCC4)cc3C(=O)N([C@@H](C)CO)C[C@@H]2C)cc1	1 ± 0.035	
C[C@@H]1CN([C@H](C)CO)C(=O)CCCn2nncc2CO[C@H]1CN(C)C(=O)c1cc(-c2ccccc2)on1	0.996 ± 0.088	
CO[C@@H]1CN(C)C(=O)c2ccc(NC(=O)c3cc(C)on3)cc2OC[C@H](C)NC[C@@H]1C	1.08 ± 0.028	

SMILES	viability index [1]	viability index (library set: Broad Institute Blood Stage)
C[C@@H]1CCCCO[C@H](CN(C)CC2CC2)[C@H](C)CN([C@H](C)CO)C(=O)c2cc(NC(=O)c3ccccc3)ccc2O1	0.951 ± 0.027	
CS(=O)(=O)N1[C@@H]2c3cccc(=O)n3C[C@H]1[C@H](CO)[C@H]2C(=O)NCc1ccc(F)cc1	1.07 ± 0.13	
C[C@H](NC(=O)C[C@@H]1C[C@H]2c3cc(NS(=O)(=O)c4ccc(F)cc4)ccc3O[C@H]2[C@H](CO)O1)c1ccccc1	1.03 ± 0.021	
COCC(=O)N1[C@@H](C#N)[C@@H](c2ccc(C#Cc3ccccc3F)cc2)[C@@H]1CO	1.12 ± 0.068	
CO[C@H](C(=O)N(C)C[C@@H]1OCc2ccccc2-c2ccccc2C(=O)N([C@H](C)CO)C[C@H]1C)c1ccccc1	0.947 ± 0.04	
C[C@H](NC(=O)C[C@@H]1C=C[C@@H](NC(=O)c2cccnc2)[C@@H](CO)O1)c1ccccc1	0.8802 ± 0.0082	
C[C@@H]1CN([C@H](C)CO)C(=O)Cc2cc(NS(=O)(=O)c3cn(C)cn3)ccc2O[C@H]1CN(C)Cc1ccc2c(c1)OCO2	1.06 ± 0.046	
O=C(N[C@H]1C=C[C@@H](CC(=O)N2CCN(c3ccccc3)CC2)O[C@H]1CO)c1ccccc1	1.04 ± 0.087	
C[C@@H]1CN([C@H](C)CO)C(=O)c2cc(NS(=O)(=O)c3cccs3)ccc2O[C@H]1CN(C)S(=O)(=O)c1ccc(Cl)cc1	0.977 ± 0.069	
COc1ccc(C#Cc2ccc([C@H]3[C@H]4CN(C)CCCCN4[C@H]3CO)cc2)cc1	0.972 ± 0.078	
Cc1ccc(OC(=O)N(C)C[C@@H]2OCc3ccccc3-c3ccccc3C(=O)N([C@H](C)CO)C[C@H]2C)cc1	0.834 ± 0.091	
O=C(CCN1CCCCC1)NCC[C@@H]1CC[C@@H](NS(=O)(=O)c2cccc(Cl)c2)[C@@H](CO)O1	0.965 ± 0.015	
COCC(=O)N1[C@H](C(=O)N2CCN(C)CC2)[C@@H](CO)[C@@H]2Cn3c(ccc(C4=CCCCC4)c3=O)[C@@H]21	1.02 ± 0.048	
CCCC(=O)N1C[C@@H]2[C@H](c3ccccc31)[C@H](CO)N2C(=O)Nc1ccc(F)cc1	1.05 ± 0.19	
CO[C@@H]1CN(C)C(=O)c2cc(NC(=O)Cc3ccccc3)ccc2OC[C@@H](C)N(C(=O)c2ccccc2F)C[C@@H]1C	0.985 ± 0.018	
N#C[C@H]1[C@@H](c2ccccc2/C=C/c2ccccc2)[C@@H](CO)N1S(=O)(=O)c1cccc(F)c1	1.082 ± 0.01	
CN1C(=O)c2cc(NC(=O)c3ccc(C(F)(F)F)cc3)ccc2OC[C@H]2O[C@@H](CC(=O)NCc3ccc4c(c3)OCO4)CC[C@H]21	1.13 ± 0.015	
CCCC(=O)Nc1ccc2c(c1)OC[C@H](C)NC[C@@H](C)[C@H](OC)CN(C)C2=O	1.03 ± 0.015	
CCC(=O)Nc1ccc2c(c1)C(=O)N(C)C[C@@H](OC)[C@@H](C)CN(Cc1nccs1)[C@@H](C)CO2	1.09 ± 0.052	
COc1ccccc1-c1ccc([C@H]2[C@@H]3CN(C(=O)c4ccncc4)C[C@H]2N3)cc1	1.06 ± 0.064	
CC(C)NC(=O)N[C@H]1CC[C@H](CC(=O)NCCCN(C)C)O[C@@H]1CO	0.951 ± 0.1	
O=C(CN1CCOCC1)N1CCCCN2[C@H](CO)[C@@H](c3ccc(Br)cc3)[C@H]2C1	1.008 ± 0.0032	
